Hit rate of the full screen: of about 310,000 compounds, about 14,000 (4.5%) showed an effect of 50% or more. The effect is printed as a negative number. The list shows a part of the results.
Target: human ether-à-go-go-related gene (hERG) potassium channel (human, UniProt Q12809)
Experiment: primary screen, population patch clamp on CHO cells stably expressing hERG
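Also: peak tail current of the secondary pulse compared with the same well before compound.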

human ether-à-go-go-related gene (hERG) potassium channel, sequence (Q12809 whole entry, looked up): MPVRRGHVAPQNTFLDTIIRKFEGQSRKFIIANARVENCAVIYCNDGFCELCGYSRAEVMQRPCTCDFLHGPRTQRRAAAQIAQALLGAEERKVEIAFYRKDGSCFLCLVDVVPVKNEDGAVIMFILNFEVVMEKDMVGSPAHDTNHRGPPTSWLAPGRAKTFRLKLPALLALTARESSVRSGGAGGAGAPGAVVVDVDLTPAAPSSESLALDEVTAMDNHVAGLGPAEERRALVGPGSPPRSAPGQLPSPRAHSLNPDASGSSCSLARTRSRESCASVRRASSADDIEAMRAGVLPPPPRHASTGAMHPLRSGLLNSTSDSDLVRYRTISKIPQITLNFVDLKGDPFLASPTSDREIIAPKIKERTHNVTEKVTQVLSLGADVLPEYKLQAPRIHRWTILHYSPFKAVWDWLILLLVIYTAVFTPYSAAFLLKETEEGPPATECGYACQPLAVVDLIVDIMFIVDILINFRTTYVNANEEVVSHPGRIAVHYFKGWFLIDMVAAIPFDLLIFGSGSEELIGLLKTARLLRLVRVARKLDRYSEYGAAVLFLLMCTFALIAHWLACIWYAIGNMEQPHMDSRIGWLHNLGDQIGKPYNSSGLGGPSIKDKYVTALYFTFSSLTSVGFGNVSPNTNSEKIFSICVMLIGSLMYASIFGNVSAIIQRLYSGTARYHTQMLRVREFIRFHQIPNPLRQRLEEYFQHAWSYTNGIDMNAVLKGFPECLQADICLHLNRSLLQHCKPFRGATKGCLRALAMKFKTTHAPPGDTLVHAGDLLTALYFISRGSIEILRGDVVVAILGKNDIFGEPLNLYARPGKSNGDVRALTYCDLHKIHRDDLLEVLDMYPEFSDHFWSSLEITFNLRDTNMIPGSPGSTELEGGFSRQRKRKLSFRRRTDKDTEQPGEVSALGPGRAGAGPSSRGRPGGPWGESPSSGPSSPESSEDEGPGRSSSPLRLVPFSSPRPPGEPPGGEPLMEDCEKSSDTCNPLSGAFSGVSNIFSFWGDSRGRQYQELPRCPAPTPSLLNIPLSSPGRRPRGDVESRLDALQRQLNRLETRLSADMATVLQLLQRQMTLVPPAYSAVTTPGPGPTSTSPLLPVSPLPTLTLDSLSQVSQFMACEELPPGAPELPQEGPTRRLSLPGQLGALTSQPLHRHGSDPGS

SMILES	hERG current change (%, negative = inhibition) at 10uM
O=C(Nc1ncc([N+](=O)[O-])s1)c1cccc([N+](=O)[O-])c1	4.76%
Cc1cccc(OCc2n[nH]c(=S)n2Cc2ccccc2)c1	11.8%
CCCCc1ccc(S(=O)(=O)N2CCC3(CC2)OCCO3)cc1	-5.08%
COc1ccc(C2/C(=C(/O)c3ccc(Br)cc3)C(=O)C(=O)N2C)cc1OC (stereo not drawn)	7.56%
O=C(NCCc1c[nH]c2ccccc12)c1ccc([N+](=O)[O-])cc1	-11.2%
CC(=O)c1ccc(N2CCN(C(=S)Nc3ccc(Oc4ccccc4)cc3)CC2)cc1	1.84%
Clc1ccccc1OCCCCN1CCCCC1	-8.1%
CCCCCN(C(=O)NC(=O)Nc1ccccc1C)S(=O)(=O)c1ccccc1	19.1%
COC(=O)c1ccc(OC)c(OC)c1Cl	4.66%
O=C(NCC1CCCO1)c1onc(CSc2cccc3ccccc23)c1C(=O)O (stereo not drawn)	14.4%
COc1ccccc1NC1=Nc2cccc3cccc1c23	-10.6%
CC(=C/C(=O)O)/C(=C/c1ccccc1)C(=O)O	15.6%
NC(=O)c1nsc(C(=O)N(CC(=O)NC2CCCC2)c2cnc3ccccc3c2)c1N	-4.05%
CCN1C(=O)/C(=C/c2cccs2)N(C)C1=S	-7.99%
COc1ccc(C(CNC(=O)c2cccc(S(=O)(=O)NCc3ccccc3)c2)N(C)C)cc1 (stereo not drawn)	-24.3%
CC(=O)c1ccc(N2CCN(C(=O)CCCn3c(=S)[nH]c4cc5c(cc4c3=O)OCO5)CC2)cc1	3.87%
CCOc1cc(C(=O)NC(C)C2CCCO2)cc(OCC)c1OCC (stereo not drawn)	10.7%
O=C(Nc1nccs1)[C@@H]1CCCN1C(=O)c1cccs1	4.23%
O=C(/C=C/c1cccnc1)c1ccc(NC(=O)c2cccc(Br)c2)cc1	-13.8%
Cc1ccc(C(C)C)c(OCc2ccc(C(=O)N/N=C/c3ccc(C(=O)O)cc3)cc2)c1	5.45%
O=C(Cn1cc([N+](=O)[O-])ccc1=O)NC1CCCCC1	-0.552%
O=c1c2nccnc2[nH]c(=S)n1Cc1ccccc1Cl	30.6%

SMILES	hERG current change (%, negative = inhibition) at 10uM
CC1(C)CSC(=NCc2ccccc2)N1C(=O)c1cccc([N+](=O)[O-])c1	-19.2%
CC(NC(=O)CN1C(=O)NC2(CCc3ccccc32)C1=O)c1ccc2c(c1)OCCO2 (stereo not drawn)	10.8%
CCOc1ccc(Nc2oc(-c3ccccc3Cl)nc2C#N)cc1	5.77%
CC(OC(=O)CN1C(=O)c2ccccc2C1=O)C(=O)NC1(C#N)CCCCC1 (stereo not drawn)	0.311%
CC1CCCN(C(=O)C2COc3ccccc3O2)C1 (stereo not drawn)	13.2%
C/C(=N\N=C1\NC(=O)C(CC(=O)O)S1)c1ccccn1 (stereo not drawn)	5.04%
O=[N+]([O-])c1ccc(Nc2nc(NCCO)nc(N3CCCC3)n2)cc1	-58.3%
Cl.ClCC1=Nc2cccc3cccc(c23)N1	-4.42%
COc1cc(C(=O)O)cc(Br)c1OC1CCCC1	20.6%
COc1ccc(C2C(C(=O)O)CC(=O)N2c2ccc(OC)cc2)cc1 (stereo not drawn)	10.9%
CCSc1nc(C)c(CC)c(C)c1C(N)=O	7.33%
CN(Cc1ccon1)C(=O)CC1C(=O)NCCN1Cc1cccc(F)c1F (stereo not drawn)	1.83%
CCOC(=O)c1sc(NC(=O)Nc2ccc(Cl)cc2)cc1C	22.5%
COc1ccc(NC(=O)C(c2ccc(OC)cc2)N(Cc2ccco2)C(=O)CC2NC(=O)NC2=O)cc1 (stereo not drawn)	-5.09%
CCN(CC(=O)Nc1c(F)cccc1F)C(=O)CCc1ccc(OC)cc1	24.6%
COc1ccc(N(C)S(=O)(=O)c2cccc(C(=O)OC(C(=O)Nc3cc(C)cc(C)c3)c3ccccc3)c2)cc1 (stereo not drawn)	18.9%
O=C(CN1CCCCC1)Nc1nc(-c2ccc(F)c(F)c2)cs1	-15.1%
O=C(Nc1nnc(S(=O)(=O)N2CCCCC2)s1)c1ccccc1Br	9.3%
Cc1c(NS(=O)(=O)c2ccc(NCCN3CCOCC3)c([N+](=O)[O-])c2)c(=O)n(-c2ccccc2)n1C	7.45%
O=c1[nH]c(-c2ccc(O)cc2)nc2scc(-c3cccs3)c12	15.8%
NC(=O)NC(CC(=O)NCCc1ccc(S(N)(=O)=O)cc1)c1ccccc1Cl (stereo not drawn)	6.81%
Cc1ncsc1C(=O)Nc1cccc(C(F)(F)F)c1	-7.72%

SMILES	hERG current change (%, negative = inhibition) at 10uM
C[C@H](NC(=O)c1ccccc1)C(=O)N1CCN(c2ccccc2)CC1	-2.4%
C=C1C(=O)[C@@]23[C@H](O)C[C@@H]4C(C)(C)CC[C@H](O)[C@@]4(C)[C@@H]2CC[C@@H]1[C@H]3O	-9.9%
Cc1cccc(NC(=O)Nc2cccc(C#N)c2)n1	-10.9%
O=C(CN(Cc1ccccc1Cl)C(=O)c1csnn1)NCc1ccccc1	-24%
Cc1cccc(C(=O)Nc2cc(=O)n(C)c(=O)n2C)c1	15.6%
O=C(NCCSc1ccccc1)c1cncc(Br)c1	-0.151%
COc1cc(-c2n[nH]c(=S)n2/N=C/c2cccn2C)cc(OC)c1OC	3.01%
COc1ccc(S(=O)(=O)c2ccccc2)cc1NS(=O)(=O)c1cccc(C(=O)O)c1	-6.71%
Cc1cc(Br)cc(C)c1NC(=O)c1ccccc1[N+](=O)[O-]	14.3%
COc1ccc(N2CC(NS(=O)(=O)c3cccs3)CC2=O)cc1OC (stereo not drawn)	3.82%
Cc1ccc(Cl)cc1N1CCN(C(=O)c2cc3c(=O)n(C)c4ccccc4c3n2C)CC1	4.48%
COC(=O)c1[nH]c2cccc(Cl)c2c1NC(=O)CN(C)C1CCCCC1	-12.3%
O=C(Nc1cccc(-n2cnnn2)c1)C1CCCN(Cc2cccc(C(F)(F)F)c2)C1 (stereo not drawn)	-59.8%
COCCn1nnnc1C(c1cc2ccc(OC)cc2[nH]c1=O)N1CCc2ccccc2C1 (stereo not drawn)	-42.4%
Cc1cccc(NC(=S)NC(=O)/C=C/c2ccco2)n1	8.29%
CCN(C(=O)COC(=O)c1nc2nc(C)cc(C)n2n1)C1CCCCC1	3.77%
Cc1cccc(N=Nc2c(C)[nH]n(-c3ccccc3)c2=O)c1	12.2%
O=C(NC1CCCC1)c1cc(-c2ccc(F)cc2)on1	-4.51%
O=C(NCCc1ccc(Cl)cc1)c1ccc(CS(=O)Cc2ccccc2Cl)o1 (stereo not drawn)	-30%
O=[N+]([O-])c1cccc(Cl)c1NCCNc1ncc(C(F)(F)F)cc1Cl	15.6%
CC(OC(=O)CCc1nc2ccccc2c(=O)[nH]1)C(=O)c1ccc(C(C)(C)C)cc1 (stereo not drawn)	-12.3%
Cn1c(SCC(=O)NNC(=O)c2ccccc2Br)nnc1C(F)(F)F	11.7%

SMILES	hERG current change (%, negative = inhibition) at 10uM
CN(Cc1ccon1)Cc1cn(C)nc1-c1ccc(Oc2ccccc2)cc1	-20.6%
O=C(O)C1CCCCC1C(=O)Nc1cnn(Cc2ccccc2)c1 (stereo not drawn)	0.545%
Cc1cc(C2=NNC(=NC3CC3)SC2)c(C)n1Cc1ccco1	-47.5%
Cc1ccc(CC(=O)Nc2ccccc2N2CCOCC2)cc1C	-24.6%
COc1ccccc1CNC(=O)COC(=O)c1cccnc1SCC(=O)NCc1ccccc1OC	3.73%
COC(=O)c1sc(N2CCCCC2)c(C#N)c1N	-4.97%
Cc1cccc(N2CCN(C(=O)C3CCCN(S(=O)(=O)c4cnc[nH]4)C3)CC2C)c1 (stereo not drawn)	-10.4%
COc1ccc(OCC(=O)C2CC2)c(C#N)c1	2.36%
CN1CCN(CC(=O)Nc2c(C(=O)c3ccccc3)oc3ccccc23)CC1	-78.9%
CCn1cc(C(=O)N(C)c2ccccc2F)c2cc(OC)c(OC)cc2c1=O	18.7%
CSc1ccccc1NC(=O)c1cc(Cl)sc1Cl	-11.5%
COCCCn1c(SCC(=O)NC2CCCC2)nnc1-c1ccco1	9.39%
COc1ccc(CN(C)C(=O)C2CCN(S(=O)(=O)c3cccs3)CC2)cc1F	-42.6%
CS(=O)(=O)N1c2cccc3cccc(c23)S1(=O)=O	15.1%
Cc1ccc(S(=O)(=O)Nc2c3ccccc3nc(=O)n2-c2ccccc2)cc1	24.3%
Cc1ccc(F)c(N=Cc2c(O)c3ccccc3oc2=O)c1	14.1%
Cc1nn(Cc2ccccc2)c(Cl)c1C(=O)NCCc1ccccc1	-0.929%
CCOC(=O)c1ccc(NC(=O)Cn2c(-c3nonc3N)nc3ccccc32)cc1	69.6%
CC(OC(=O)CCCN=C1NS(=O)(=O)c2ccccc21)C(=O)Nc1ccc(F)c(F)c1F (stereo not drawn)	-1.56%
Cc1c(NC2=CC(=O)CCC2)c(=O)n(-c2ccccc2)n1C	8.37%
N#Cc1cn(CC(=O)N2CCc3ccccc3C2)c2ccccc12	-7.6%

From publication PMC4336329 (PLoS ONE, 2015)
